The full ranking holds about 33,000 sequences; the median of “E-score (-0.5 to 0.5)” is about -0.053, and the highest 2% start at about 0.37. The list shows a part of the results.
These sequences were tested against Hap1 (UniProt P0CE41) (assay: PBM E-score (8-mer binding enrichment) (E-score (-0.5 to 0.5)); higher = stronger / more preferred TF binding; most listed sequences are background and not binding sites). Conditions: protein concentration: 200 nM; construct: GST-DNA-binding domain.
In short: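 Masliner-normalised scans of fluorescent anti-GST signal were the basis for scoring. That signal came from GST-tagged yeast transcription factors applied at about 100-200 nM to double-stranded universal all-10-mer Agilent arrays on fresh or once-stripped slides. Each ungapped eight-base word, pooled with its reverse complement, received an E-score from the Universal PBM Analysis Suite.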

Sequence of UniProt P0CE41 (P0CE41 whole entry, the tested form may be a part): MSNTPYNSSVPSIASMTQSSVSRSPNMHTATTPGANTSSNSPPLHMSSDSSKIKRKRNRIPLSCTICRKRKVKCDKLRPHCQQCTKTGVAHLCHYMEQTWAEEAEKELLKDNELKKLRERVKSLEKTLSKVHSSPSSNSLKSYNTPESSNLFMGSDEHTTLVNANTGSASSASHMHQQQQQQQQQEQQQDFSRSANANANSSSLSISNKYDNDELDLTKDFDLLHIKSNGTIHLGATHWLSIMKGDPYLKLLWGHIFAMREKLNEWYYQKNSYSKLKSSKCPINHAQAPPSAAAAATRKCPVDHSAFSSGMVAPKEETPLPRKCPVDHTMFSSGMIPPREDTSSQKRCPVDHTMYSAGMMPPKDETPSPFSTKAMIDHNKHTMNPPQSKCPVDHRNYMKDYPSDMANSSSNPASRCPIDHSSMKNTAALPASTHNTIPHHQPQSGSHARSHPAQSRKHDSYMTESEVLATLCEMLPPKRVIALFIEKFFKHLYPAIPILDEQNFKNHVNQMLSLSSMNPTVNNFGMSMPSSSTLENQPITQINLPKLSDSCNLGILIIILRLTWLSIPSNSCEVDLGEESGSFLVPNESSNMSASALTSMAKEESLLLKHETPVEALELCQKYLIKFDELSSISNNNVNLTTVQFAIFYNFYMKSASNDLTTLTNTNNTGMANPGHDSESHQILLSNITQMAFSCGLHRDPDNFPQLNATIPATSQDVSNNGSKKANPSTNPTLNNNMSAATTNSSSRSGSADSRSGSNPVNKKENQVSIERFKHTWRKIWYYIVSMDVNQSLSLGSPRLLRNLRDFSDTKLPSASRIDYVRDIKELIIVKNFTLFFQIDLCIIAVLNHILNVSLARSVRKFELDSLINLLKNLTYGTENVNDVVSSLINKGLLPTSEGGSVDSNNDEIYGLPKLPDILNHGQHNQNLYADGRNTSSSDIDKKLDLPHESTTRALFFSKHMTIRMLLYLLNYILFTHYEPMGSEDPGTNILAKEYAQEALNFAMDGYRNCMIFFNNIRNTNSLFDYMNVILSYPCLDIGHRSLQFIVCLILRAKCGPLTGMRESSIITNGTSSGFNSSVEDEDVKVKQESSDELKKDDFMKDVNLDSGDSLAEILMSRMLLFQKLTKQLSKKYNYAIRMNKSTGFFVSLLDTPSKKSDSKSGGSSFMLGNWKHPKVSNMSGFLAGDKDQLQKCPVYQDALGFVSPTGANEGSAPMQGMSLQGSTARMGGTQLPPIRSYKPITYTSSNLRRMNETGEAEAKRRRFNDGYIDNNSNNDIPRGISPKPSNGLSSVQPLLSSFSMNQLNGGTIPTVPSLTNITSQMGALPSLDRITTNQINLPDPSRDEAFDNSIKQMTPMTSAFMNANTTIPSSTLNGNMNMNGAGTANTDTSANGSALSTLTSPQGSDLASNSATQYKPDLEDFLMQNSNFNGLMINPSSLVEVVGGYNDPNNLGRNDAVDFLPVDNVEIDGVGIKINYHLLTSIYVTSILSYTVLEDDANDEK

Sequence | PBM E-score
AATGTAAA | 0.0271
ATCCACAC | -0.162
TACTTCCA | 0.053
CGTCGGTC | 0.34
AAGTGTCG | -0.0516
ACTAATCG | 0.209
GAGCACGA | -0.0347
CGCGCTAG | 0.0264
GATGATCA | -0.0713
GCCATACA | -0.156
AGCTAGAT | -0.213
ATAGGAGA | -0.382
GGCCGTAA | 0.377
CCCCTTGA | -0.109
TAGGTTCA | 0.0751
AAGCAGGA | -0.00208
CCATATGG | -0.252
GGCCTTAA | 0.255
TCTGCCAA | -0.294
TACCGGTA | 0.441
GGGCTGTA | -0.0531
AGACGATA | -0.0095
AATGCGGA | 0.256
CTGAGTCA | -0.202
AACCAAGT | -0.152

Sequence | PBM E-score
ATGTGACC | -0.0399
ATGAGAGA | -0.16
CCCCCAGC | -0.206
CATACCGA | 0.176
AGACCTGC | -0.284
AAGACTTA | -0.257
AACCGAAA | 0.231
AGTCTGCC | -0.238
GGTCCCAA | -0.0522
CGACTGGA | 0.133
CCTGGTCA | -0.214
AAGGCCCA | -0.209
AGATCGTG | -0.158
CACGCATG | -0.136
AATCATCT | -0.0475
CACGGCGG | 0.0847
CTATACGA | -0.078
ACCTATCA | -0.102
ACCTAGTA | -0.226
AAGATAAG | -0.138
TTCTGCAA | 0.0316
ATATGCTC | 0.177
ATACGCAT | -0.107
GGATGGAC | 0.0142
CATTCTGA | -0.155

Sequence | PBM E-score
ACAGTTCA | -0.328
ATCACTGC | 0.0681
CGCCTCCA | -0.0727
GAACGATC | 0.0141
TCACTGGA | -0.122
CTACCCGC | 0.0857
CCTCCCGA | 0.0333
GTCTGTAA | -0.00254
CACCCTAA | -0.209
GCGCTCAA | -0.13
CTCGACTC | -0.162
GAAATTCC | 0.182
ATGGTAAG | -0.209
ACCTACAA | -0.244
ACAGGTAC | -0.125
TATCAGGA | -0.1
CAAACATC | 0.176
AAATAGTT | 0.1
AACGCGCC | 0.0817
GCGGACGC | 0.0721
CCCATTGC | -0.105
AAATCAAT | -0.136
CGGCCCCG | 0.274
AGGGTTAC | -0.212
CTATCTAA | -0.0249

Sequence | PBM E-score
GCAGGCAA | -0.107
AGTCCAGG | -0.197
AACAAGAT | 0.0665
CAACCGCG | 0.185
CGATGCAC | -0.113
GATCACAC | -0.172
GCTGTCAC | -0.18
CGGTTCCA | 0.103
AGGGTTTC | 0.083
CCCGGAGG | 0.285
CACTCTAG | -0.126
AGAACGGG | 0.0979
CTGAAAAA | -0.181
CCTTATTC | -0.214
ACAACGTA | -0.175
ACACCGCC | 0.0685
GGCCCAAC | 0.0978
GCTCTGAC | -0.333
CCGGAACA | 0.376
ACCACATG | -0.235
TAAATGAA | -0.229
ACTTAGGC | -0.141
ACCCCGTC | 0.19
CTGCCAAC | -0.212
AACCATGC | 0.0277

Sequence | PBM E-score
AGTTAAAC | -0.107
ACGGCCAG | -0.041
AAAGTCAA | -0.0916
TCCATGCA | 0.0556
ACTCTACA | -0.131
AGCACGCT | -0.269
CACTCCGA | 0.212
ACTGTAGG | -0.118
ACGAAGGA | -0.175
AAAGGTCG | -0.09
TCATTAAA | 0.0575
CTTACGTC | -0.12
TCTTAAAA | -0.177
CTTAGTAA | -0.11
GTTATGGA | 0.0461
CGAGTTTC | 0.00473
AGTGGTTG | -0.128
ACGGCGTG | 0.0794
GAAGGACC | -0.00646
GAATAGCC | 0.137
AACAGCGA | -0.0524
ATGAACAA | -0.0683
GAGGCTAC | -0.181
AATAGGCA | 0.0991
GGACGCGA | 0.0258

Sequence | PBM E-score
AGCTGTAT | -0.242
ACCTTACC | -0.0659
TAGCAACA | -0.026
CCGCTAGC | 0.194
AAGCACCA | -0.277
AATGCCCG | 0.245
CCTCTGCC | -0.162
ACCAATAG | -0.163
AGTGCTTG | -0.242
CGAATGTC | -0.0766
ATTTGCCG | 0.267
CTCTCCTA | -0.244
AACATACG | 0.183
GGCCTGAC | 0.0959
ACATTAGG | -0.186
CACTGGAA | -0.275
GACAAGCA | -0.0476
GAGCGAGA | 0.168
ATTCTTTC | 0.0784
AAGCTCGT | -0.181
ACTGGAAA | -0.122
ATGTGGGA | -0.103
GCTGTACA | -0.0772
AATTTGCG | 0.0815
GAACATTC | 0.0513

Sequence | PBM E-score
CTTGACAA | -0.135
GAGGCGAA | 0.0536
CGAGGGTC | 0.056
AGGCGACC | 0.0226
GATCATCA | -0.187
ACAGAAGT | -0.221
ATCGATCA | -0.0196
TCACCTGA | -0.195
GCCAGCCC | -0.133
CCGTAAAC | 0.197
CCATGGAC | -0.129
CGAGCCTC | 0.0621
CCGCAGGA | 0.096
ACGCCTCT | -0.0953
CGCCGATA | 0.426
ACCGAAGC | 0.227
ATCGCGCG | 0.204
ACGAAGGC | -0.0703
GTACAACA | -0.165
GTACACAA | -0.185
GCAGGAAC | -0.0812
CTATGACA | -0.239
CGCGTTCA | 0.0396
ATACATGC | -0.0662
CATGCCGG | 0.298

Sequence | PBM E-score
CGTCTTGA | -0.0786
AACAGAAA | -0.238
ACGATGGC | -0.107
TACTGGGA | -0.0481
TGTGTTAA | -0.148
CGAAAGAA | 0.0698
AGTGCGAC | -0.022
AGCGAGGG | -0.214
ACCCGAGG | 0.182
CCATTATA | 0.0773
ATGGTTTA | 0.043
CTCGTTGC | -0.148
ATGGCCAA | -0.0562
GTGTAATA | 0.00414
GCGGGCCA | 0.121
TACATTAA | -0.156
AGATTTAG | 0.0894
CTCTTGTC | 0.0191
AATTATCC | 0.231
ACATGGTA | -0.21
ATCAAAGG | -0.168
ATGAGACC | -0.0744
ACGCCATC | -0.103
CAAGGGCA | -0.226
ATTCATGA | -0.271

Sequence | PBM E-score
CCACCGAA | 0.187
CACTCCCG | 0.0991
CGGACAAG | 0.357
CTAAGAAG | -0.0922
CAAACCCA | -0.145
GAGCGACC | -0.107
GAATAGTA | -0.0351
CGTATCCA | -0.173
AGTAAATC | -0.00532
GGATAAGA | 0.0382
AACACGCC | 0.0448
GAAATGTC | 0.146
AAGATTGA | -0.251
ACATTTAT | -0.149
GCTCTTTA | 0.0639
ACGGACTC | 0.223
GCAACCCC | 0.0182
ACTGAGAA | -0.227
ATGACGAG | -0.168
ATAAATGG | -0.101
CGGGATTA | 0.454
ATCGTTGA | -0.0674
AGCATTAG | -0.113
ATCGTCAA | -0.0668
CACCTTAG | -0.0735

Sequence | PBM E-score
CTCTCTGC | -0.112
ACCCACGT | -0.156
AAACGGTA | 0.11
CAGCTCGG | 0.359
ACACGAAT | 0.0924
GTATCGGA | 0.415
AAGCCAGA | -0.0977
AACCTAAT | -0.0215
ACTACCGA | 0.161
ATTCCGCG | 0.285
AATATGAA | -0.0613
CTGCCTGA | -0.019
CACGGAAA | 0.295
ATCACAAT | -0.0674
TAGATGGA | -0.266
GAGTCCGC | 0.249
GGACGCAC | 0.0282
GTAGAATA | -0.126
TCCACGCA | -0.0804
ACGTGACG | -0.0633
CTAGCAAC | -0.0735
CACAAAGG | -0.168
AGCAGACA | -0.24
ACGGACAT | 0.421
CCCAGTCC | -0.03

Sequence | PBM E-score
CCACAGCC | -0.0703
CCCACTGA | -0.118
GTGACATA | -0.0913
CTCCAGAG | -0.0749
CCTCCTAG | -0.237
AGGACTGG | -0.218
ACCAAGGG | -0.173
AATTCAAA | -0.184
GGGTGTAA | 0.143
GGTCGCGA | 0.213
AGGGTGCC | -0.108
ATAGTCAA | -0.194
GGACATGA | 0.272
ATCCTAAA | -0.135
ACAACTAA | -0.119
ACTGACAA | -0.265
GCAAGTCA | -0.0957
ACCTAATA | -0.0382
TCGGGGCA | 0.299
TCATCGGA | 0.316
GTGCTTAA | 0.0585
CCAGAAGG | -0.165
ACATTTTC | 0.12
GACCTCCC | -0.028
CGCTAACC | 0.127

Sequence | PBM E-score
TAGGATAA | -0.148
ATCGTCAC | -0.102
AAATAAGG | 0.0258
AGCTCCAC | -0.043
AGGAAGAC | -0.309
ACACGATG | -0.172
GGTATAAC | 0.0793
ATCGGCGC | 0.343
ACGCCTCA | -0.307
GCATTAAC | 0.216
AGTTTTAG | -0.0919
GTTACTTA | -0.0394
GCGCCCGA | 0.353
AAGACGCA | 0.106
TAGCGACA | -0.0862
CACCAGAG | -0.248
CGACATAA | -0.0157
ACCGATGG | 0.0307
AGCTATAC | -0.111
GAAGTTGC | -0.2
CTCGCAGC | -0.0264
GTAGGCCA | -0.153
AGATGCTC | 0.0626
CAGTGGCG | -0.154
ACGTGTTG | -0.119

Sequence | PBM E-score
CGTCCCAG | -0.0968
AGGACTCA | -0.259
AACCTGAC | -0.3
AGACCTCA | -0.391
AATGTCCT | -0.144
ATGGCTCA | -0.343
AGGTACTC | -0.145
ACCTGCGG | 0.29
CACGATCA | -0.118
CGCATGCC | 0.1
AGCTGAAA | 0.112
GAAGTTTA | 0.074
AGTCGGCG | 0.159
ACTCGTGC | -0.124
GAGGGATC | 0.0369
ACCTTAGT | -0.217
CCCAACGA | -0.0546
GACGACTC | -0.101
TAAGCAGA | 0.015
CCAACGCA | -0.0331
CCAATGTC | -0.15
ACCGGACC | 0.397
CATGGCTC | -0.11
CCCAGGGC | -0.121
GGTCAAAA | -6e-05

Sequence | PBM E-score
CATGTGAA | -0.0737
GACTCTGC | -0.13
GGAATGTA | 0.215
CTACCTAA | -0.14
AGCTGGAC | -0.13
AAAACTAC | 0.124
AACAGGAT | -0.265
CTTTGGCA | -0.279
GGGCCAAC | 0.00168
AAAAGGAA | 0.0913
CATGGTGA | -0.0558
GCGTCCCC | -0.0827
AGGGTGGC | -0.0363
CGCTCGAG | -0.0165
GACTGAGA | -0.168
CTACTCCA | -0.0772
ACTCGCCT | -0.14
ACCGACCT | 0.0397
CTCCACGC | -0.176
